These results are taken from paper PMC4336329 (PLoS ONE, 2015).

Structures are written as SMILES. The campaign covered roughly 310,000 compounds. About 2,200 (0.71%) showed an effect of 50% or more. The effect is printed as a negative number. The list shows a part of the results.

The target in the assay is human ether-à-go-go-related gene (hERG) potassium channel (human, UniProt Q12809). In words: primary screen, population patch clamp on CHO cells stably expressing hERG.
human ether-à-go-go-related gene (hERG) potassium channel, sequence (Q12809 whole entry, looked up): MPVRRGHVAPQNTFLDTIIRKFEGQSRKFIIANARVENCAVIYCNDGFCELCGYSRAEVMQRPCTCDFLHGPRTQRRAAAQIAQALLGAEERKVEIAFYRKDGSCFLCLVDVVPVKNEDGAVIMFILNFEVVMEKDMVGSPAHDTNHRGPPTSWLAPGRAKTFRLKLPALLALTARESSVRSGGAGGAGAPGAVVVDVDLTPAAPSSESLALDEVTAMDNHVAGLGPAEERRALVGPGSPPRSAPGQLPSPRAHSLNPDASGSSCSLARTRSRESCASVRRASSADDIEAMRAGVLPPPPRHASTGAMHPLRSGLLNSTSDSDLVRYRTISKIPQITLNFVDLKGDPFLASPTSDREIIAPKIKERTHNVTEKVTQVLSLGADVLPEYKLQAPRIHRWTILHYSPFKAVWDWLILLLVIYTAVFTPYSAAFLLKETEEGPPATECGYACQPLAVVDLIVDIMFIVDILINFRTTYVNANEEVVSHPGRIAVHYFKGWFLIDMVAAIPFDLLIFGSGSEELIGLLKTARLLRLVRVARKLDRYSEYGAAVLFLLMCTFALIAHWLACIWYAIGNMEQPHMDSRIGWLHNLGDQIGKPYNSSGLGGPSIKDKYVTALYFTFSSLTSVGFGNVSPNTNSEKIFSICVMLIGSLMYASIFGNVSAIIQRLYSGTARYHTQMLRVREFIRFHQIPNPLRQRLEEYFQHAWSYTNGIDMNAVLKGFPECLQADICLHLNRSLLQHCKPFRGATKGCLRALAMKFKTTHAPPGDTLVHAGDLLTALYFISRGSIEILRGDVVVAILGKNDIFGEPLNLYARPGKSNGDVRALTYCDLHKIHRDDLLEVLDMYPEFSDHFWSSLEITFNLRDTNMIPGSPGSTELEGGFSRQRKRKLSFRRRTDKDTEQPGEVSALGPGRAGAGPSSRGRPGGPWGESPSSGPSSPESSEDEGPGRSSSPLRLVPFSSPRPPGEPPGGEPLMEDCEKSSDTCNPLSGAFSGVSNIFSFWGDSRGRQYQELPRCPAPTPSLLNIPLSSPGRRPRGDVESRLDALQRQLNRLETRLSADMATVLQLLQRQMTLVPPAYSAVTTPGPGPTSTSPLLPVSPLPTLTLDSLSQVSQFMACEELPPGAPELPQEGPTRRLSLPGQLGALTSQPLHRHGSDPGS
For `N#CC(C(=O)NC1CCCCC1)=C1CCCCC1`, the “hERG current change (%, negative = inhibition) at 1uM” value stood at 11%. The value for `COc1ccc(CCNC(=O)C(=O)N2CCCC2)cc1OC` was 6.5%; that for `CCOc1ccccc1OC(=O)CN1C(=O)c2ccccc2C1=O` was 18.3%; that for `Cl.c1ccc2c(N3CCOCC3)c3c(nc2c1)CCC3` was 0.62%. The value for `O=C(N/N=C/C=C/c1ccc([N+](=O)[O-])cc1)C1COc2ccccc2O1` (stereo not drawn) was -23.4%; that for `Cc1cccc(C(=O)Nc2nnc(C3=COCCO3)o2)c1` was 12.9%; that for `COc1ccc(OC)c(C2SCCN2S(=O)(=O)c2cccc(C(F)(F)F)c2)c1` (stereo not drawn) was 15.1%. The value for `C=C(C)C(=O)Nc1cccc(C2=NOC3(C2)C[C@@H](C(N)=O)N(C(=O)c2ccc(Cl)cc2)C3)c1` (stereo partly drawn) was -15.8%; that for `O=C(O)c1ccc(NCCC2=CCCCC2)c([N+](=O)[O-])c1` was 29.7%. Turning to `CNc1oc(-c2ccccc2Cl)nc1C#N`, the “hERG current change (%, negative = inhibition) at 1uM” value came to 8.73%. `O=[N+]([O-])NC1=NCCN1Cc1ccc(Cl)nc1`: the “hERG current change (%, negative = inhibition) at 1uM” value is on record as 10%. The result for `CCOC(=O)C1(CCCc2ccccc2)CCN(C(=O)CSC)CC1` reads 3.88%.

`O=C(Nc1cc(Cl)ccc1-n1cncn1)c1ccco1`: the “hERG current change (%, negative = inhibition) at 1uM” value is given as 10.8%. The result for `COCCCN1C(=O)c2ccc(C(=O)NCCc3ccccc3)cc2C1=O` reads 11.9%. Consider `O=C(NC1CCCCC1)C(c1ccccc1)N(C(=O)Cc1ccsc1)c1ccccc1` (stereo not drawn), for which the “hERG current change (%, negative = inhibition) at 1uM” value came to 5.66%.

In the case of `COc1ccc(CCN2C(=O)CC(N3CCN(C/C=C/c4ccccc4)CC3)C2=O)cc1OC` (stereo not drawn), the “hERG current change (%, negative = inhibition) at 1uM” value is reported as -14.1%. The result for `CS(=O)(=O)Nc1ccccc1C(=O)N1CCCC1` reads 15.7%. The result for `O=C(CSc1nc2ccc([N+](=O)[O-])cc2s1)NC1CCS(=O)(=O)C1` (stereo not drawn) reads 0.439%; that for `CCOC(=O)c1cc2sccc2n1Cc1ccc(C#N)cc1`, 6.14%. The value for `CCc1nc(Nc2ccc3c(c2)OCCO3)c2oc3ccccc3c2n1.Cl` was 12%; that for `COC(=O)C1=C(C)NC(C)=C(C(=O)OCC2CCCO2)C1c1ccc(Cl)c([N+](=O)[O-])c1` (stereo not drawn) was 4.23%; that for `Cc1ccc(Cl)c(Nc2ccccc2C(=O)[O-])c1Cl.[Na+]` was -2.92%. Take `CN1CCN(C2=C(Cl)C(=O)N(c3ccc(Cl)cc3)C2=O)CC1`: the “hERG current change (%, negative = inhibition) at 1uM” value was determined as 6.47%. The result for `O=[N+]([O-])c1ccc(N2CCCC2)c2ccncc12` reads 12.9%; that for `CCCCn1cnc2c(c(-c3ccccc3)c(-c3ccccc3)n2Cc2ccco2)c1=N`, -45.6%. The value for `CCCCOP(=O)(c1ccc(N(C)C)cc1)C(Nc1ccccc1)c1ccccc1` (stereo not drawn) was 2.32%; that for `O=C(Cc1cn(Cc2cccc(Cl)c2)c2ccccc12)N1CCCCCC1` was 7.31%; that for `CCOC(=O)c1c(NC(=O)CCN2C(=O)c3ccccc3C2=O)sc(C(=O)OC(C)C)c1C` was -0.128%. For `Cc1nnc(C)c2c(C)n(N)c(C)c12`, the “hERG current change (%, negative = inhibition) at 1uM” value came out at 4.5%. In the case of `COc1ccccc1P(=O)(c1ccccc1)c1ccccc1NC(C)=O` (stereo not drawn), the “hERG current change (%, negative = inhibition) at 1uM” value is recorded as 13.7%. For `O=C(Nc1nc2c(Br)cc(Br)cc2c(=O)s1)c1ccco1`, the “hERG current change (%, negative = inhibition) at 1uM” value stood at 13%. For `C=CCN1C(=Nc2ccccc2)SC/C1=C\C(=O)OC`, the “hERG current change (%, negative = inhibition) at 1uM” value amounted to 9.65%. On to `O=C(O)COc1ccccc1/C=N/NC(=O)CNC(=O)c1ccco1`, for which the “hERG current change (%, negative = inhibition) at 1uM” value amounted to 11%. The value for `CCCNC(=O)NC(=O)COC(=O)CNS(=O)(=O)/C=C/c1ccccc1` was 14.5%; that for `O=C(Cn1ncc2c3ccccc3n(Cc3ccccc3)c2c1=O)N1CCN(c2ncccn2)CC1` was 11.4%; that for `COc1ccc(C(C)=O)c(OC(=O)c2ccco2)c1` was 10.9%. The result for `O=S(c1ccc2ccccc2c1)c1cnns1` (stereo not drawn) reads 17.6%. The result for `CCOc1ccc(NC(=O)NNC(=O)C2CCC(C(C)(C)C)CC2)cc1` (stereo not drawn) reads 13.6%. Consider `CCOc1ccc(NC(=O)N2CCN(Cc3ccc4c(c3)OCO4)CC2)cc1`, for which the “hERG current change (%, negative = inhibition) at 1uM” value amounted to 3.52%. The result for `CC(=O)N1CCC(C(=O)Nc2ccc(S(=O)(=O)N3CCCCC3)cc2)CC1` reads -6.47%. The result for `CCc1ccc(-n2c([O-])c(C(C)=O)c(=O)[nH]c2=O)cc1.C[NH+](C)C` reads 14.1%. The result for `C/C(=C\C(=O)c1ccc(Br)cc1)NNC(=O)c1ccc(O)cc1` reads 13.3%; that for `Cc1ccc(NC(=O)CCS(=O)(=O)c2ccccc2)cc1S(=O)(=O)N1CCOCC1`, 7.17%.

For the molecule `CC(NC(=O)C1CCC(CNS(=O)(=O)c2ccccc2)CC1)c1ccc2c(c1)OCCO2` (stereo not drawn), the “hERG current change (%, negative = inhibition) at 1uM” value is -2.71%.

In the case of `COCCCN1C(=O)c2ccc(C(=O)OCC(=O)N3CCN(c4ccccc4)CC3)cc2C1=O`, the “hERG current change (%, negative = inhibition) at 1uM” value is -3.38%. The value for `COc1ccc(C(=O)N(C)C(C)c2ccon2)cc1OC1CCN(C(C)C)CC1` (stereo not drawn) was 9%; that for `COC(=O)C1=C(C)N(c2ccc(OC)cc2)C(=O)/C1=C\c1cccs1` was 5.58%. The result for `Cc1cccc(CN2CCc3c([nH]c4ccccc34)C2C(C)(C)C)n1` (stereo not drawn) reads 12.3%; that for `COc1ccc(S(=O)(=O)NC2CCN(Cc3ccccc3)CC2)cc1NC(C)=O`, 3.79%. The value for `S=C(Nc1ccc(Br)cc1Cl)N1CCC2(CC1)OCCO2` was 9.71%; that for `O=C(Cc1cccs1)Nc1ccon1` was 23%; that for `O=C(CSc1nnc(CNC(=O)C23CC4CC(CC(C4)C2)C3)n1-c1ccccc1)Nc1ccc(F)cc1` was 7.62%.

As for `CS(=O)(=O)N(CCC#N)Cc1ccco1`, the “hERG current change (%, negative = inhibition) at 1uM” value was found to be 15.2%. The result for `CC(=O)NCCn1c(C)cc2ccccc21` reads -28%; that for `O=c1c(Cc2ccc(F)cc2)c(O)ccn1CCc1cnc[nH]1`, 11%. On to `COc1ccc(C(=O)Nc2scc(-c3ccc(Cl)cc3Cl)c2C(N)=O)cc1`, for which the “hERG current change (%, negative = inhibition) at 1uM” value is given as 10.2%. The value for `O=C(COc1ccc([N+](=O)[O-])cc1)NCc1ccncc1` was -4.5%.
